The source of these data is ChEMBL document CHEMBL4888484, “Replenishing the malaria drug discovery pipeline: Screening and hit evaluation of the MMV Hit Generation Library 1 (HGL1) against asexual blood stage Plasmodium falciparum ,using a nano luciferase reporter read-out” (2022).

Screen size: about 150,000 compounds; about 540 (0.36%) showed an effect of 50% or more. The list shows a part of the results.

One may read the % Inhibition as the change of the read-out against control, counted positive when it falls.

The assay relates to Plasmodium falciparum. Briefly: Primary screen in NF54 nanoGlo assay, in single point, at 2uM, 72h; a lower Z score goes with more inhibition. Type of assay: functional, Erythrocyte. The settings on record: timepoint 72 hour.
As for `CC(C)c1ccc(N2C(=O)[C@@H]3C[C@@H](NC(=O)c4ccncc4)CCN3C2=O)cc1`, the “% Inhibition” value is given as -9% and the Z score is 1.4.

`Cc1nc(N2CCCC2)nc(C)c1NC(=O)C1CCN(S(C)(=O)=O)CC1`: the “% Inhibition” value is recorded as -12% and the Z score is given as 2.13.

With `CC(C)(C)OC(=O)NCc1cnn(Cc2cn3cccnc3n2)c1`, the “% Inhibition” value was -1% and the Z score is reported as 0.17.

With `COc1ccc(N(C(=O)c2sc3cc(F)ccc3c2Cl)S(=O)(=O)c2ccc(Cl)c(NC(=O)c3sc4cc(F)ccc4c3Cl)c2)cc1`, the “% Inhibition” value is on record as -4% and the Z score was determined as 0.75.

In the case of `COCCN(Cc1[nH]c2ccccc2c1C)CC1CCN(Cc2ccccc2OC)CC1`, the “% Inhibition” value turned out to be 0% and the Z score is -0.01.

Regarding `Cc1nc(-c2c3n(c(=O)n(CC(=O)Nc4ccc(C)c(C)c4)c2=O)CCCC3)no1`, the “% Inhibition” value came out at 1% and the Z score is -0.13.

With `O=C(O)C1CCC(C(=O)N2CCC[C@H](c3cccc(C(F)(F)F)c3)C2)CC1` (some centres not stated), the “% Inhibition” value is on record as -12% and the Z score amounted to 1.19.

In the case of `C(=C\c1ccccc1)/CN1CCN(c2ncncn2)CC1`, the “% Inhibition” value is reported as -10% and the Z score stood at 1.7.

As for `C=CCn1c(-c2ccccc2Cl)cn2cc(C(=O)N3CCN[C@H](C)C3)nc2c1=O`, the “% Inhibition” value is listed as -11% and the Z score amounted to 2.05.

Consider `NC(=O)c1cncc(N2CCC3C(CCCN3Cc3ccccc3)C2)n1` (configuration not stated), for which the “% Inhibition” value was -5% and the Z score was found to be 0.81.

With `CCc1ccc(NC(=O)[C@H]2CC(=O)N(c3cccc(C(=O)Nc4ccccc4)c3)C2)cc1`, the “% Inhibition” value is on record as -23% and the Z score is given as 2.22.

Take `Cc1nn(-c2ccccc2)c2sc(-c3noc(CNC(=O)c4cccs4)n3)cc12`: the “% Inhibition” value turned out to be 3% and the Z score is reported as -0.29.

Turning to `CCCN(Cc1c(C)nn(-c2ccccc2)c1N1CCN(CC)CC1)C(=O)Nc1cccc(C)c1`, the “% Inhibition” value is listed as -4% and the Z score was determined as 0.67.

In the case of `Cc1ncsc1CCCn1ccnc1-c1cccc2nonc12`, the “% Inhibition” value was -3% and the Z score was found to be 0.33.

Take `O=C1CCCN1CC(=O)N(CC1CCN(C2Cc3ccccc3C2)CC1)C[C@H]1CCCO1`: the “% Inhibition” value was -10% and the Z score worked out at 1.88.

As for `Fc1cc2ncn(CN(C3CCCC3)C3CC3)c2cc1F`, the “% Inhibition” value stood at 0% and the Z score was -0.03.

Take `COc1ccc(N2CCN3c4cc(OC)ccc4CC(C(=O)NCCC(C)C)C3C2)cc1` (configuration not stated): the “% Inhibition” value was -8% and the Z score was 0.95.

For the compound `O=C(NCCNC(=O)C1CCCO1)C1CCCO1` (configuration not stated), the “% Inhibition” value is -3% and the Z score is 0.27.

In the case of `CC[C@H]1Cn2c(C(=O)N3CCN(c4ccccn4)CC3)cc3c(Cl)ccc(c32)O1`, the “% Inhibition” value worked out at 39% and the Z score was -5.66.

In the case of `Cc1cccc(CC(=O)N2CCc3nc(CNC(=O)C4CCC4)n(C)c3C2)c1`, the “% Inhibition” value is -2% and the Z score was 0.18.

Consider `CN(Cc1cc2ccccc2[nH]1)C(=O)C1C2CCCC21` (configuration not stated), for which the “% Inhibition” value is recorded as -13% and the Z score is listed as 1.83.
